According to article PMC12040169 (PLOS Biology, 2025):
Some of the results follow.

The compounds below were run on T1, C. trachomatis L2/434/Bu expressing GFP (CTL2-GFP). Details: total inclusion area; 28.5 h, 10 µM; inhibitor.
T1 construct: L2/434/Bu GFP intracellular growth in HeLa cells
Set-up: species or system HeLa; C. trachomatis total inclusion area by high-content imaging, normalised to DMSO
Outline: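 Imaging read-out: GFP inclusions and Hoechst nuclei captured by high-content imaging after fixation. Inclusion area/number = chlamydial growth; nuclei count = host cell viability. MIC calculated per earlier method.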

| SMILES | % of control remaining |
| --- | --- |
| CC(C)(C)c1cc(-c2nc3ccccc3[nH]2)c(O)c(-c2nc3ccccc3[nH]2)c1 [CBK266084] | 40.9836 |
| Cc1ccc(Cl)cc1N1CCN(S(=O)(=O)N(C)C)CC1 [CBK270284] | 109.671 |
| O=S(=O)(Nc1nccs1)c1ccc(Nc2ncnc3ccccc23)cc1 [CBK269487C] | 11.1795 |
| O=C(Cn1c2ccccc2c2ccccc21)Sc1nc2ccccc2[nH]1 [CBK263788] | 114.466 |
| Cc1ccc(S(=O)(=O)NCCC(=O)NO)cc1 [CBK023472] | 71.5054 |
| COc1ccc(C(C)NC(=O)CCn2ccc3ccncc32)cc1 (centres unmarked) [CBK284798] | 87.0096 |
| CN1CCN(c2nccnc2-c2ccco2)CC1 [CBK038050] | 115.582 |
| Cc1ccc(OCC(=O)Nc2cccnc2)c(-n2nc3ccccc3n2)c1 [CBK270281] | 108.846 |
| COc1cc(/C=C2/NC(=O)N(c3ccccc3)C2=O)ccc1OCc1ccc(C(=O)O)cc1 [CBK265139] | 87.1087 |
| COc1ccc(C(NC(=O)C2CCN(C(=O)Oc3ccccc3)CC2)c2ccccc2C)cn1 (centres unmarked) [CBK059715] | 96.3468 |
| COc1ccc(CC(=O)N2CCCC(c3cccc(Cc4cccc(C)c4)n3)C2)cc1 (centres unmarked) [CBK286498] | 69.6811 |
| O=C(CN1CCCCC1)NCCNc1ccc([N+](=O)[O-])cc1Cl [CBK264922] | 103.599 |
| Cc1nc2c(c(=O)[nH]1)CCN(Cc1cc(C)n(C3CC3)c1C)C2 [CBK282338] | 86.4958 |
| Cn1ncc2c1CCCN(C(=O)c1ccccc1C(F)(F)F)C2 [CBK282251] | 110.395 |
| Nc1nc2n(c1C(=O)c1ccc(Cl)cc1)CCC2 [CBK288194] | 87.6334 |
| FC(F)(F)c1ccc(Oc2ccc(-c3noc(-c4cccnc4)n3)cc2)nc1 [CBK270166] | 102.526 |
| O=C(Nc1ccc(OC(F)F)cc1)Nc1c(Br)cnc2cccnc12 [CBK107632] | 92.391 |
| O=C(c1ccc2[nH]ccc2c1)N1CCN(c2ncccn2)CC1 [CBK144500] | 83.0344 |
| O=C(Cc1ccc(NS(=O)(=O)c2cc(Cl)c(Cl)s2)nc1)N1CCOCC1 [CBK003790] | 100.367 |
| CS(=O)(=O)N1CC2(CCN(C(=O)N(CCN)CCc3ccc(Cl)cc3)CC2)c2ccccc21 [CBK001687C] | 58.4489 |
| Cn1cc(Nc2nc(-c3ccc4c(c3)CCCN4S(C)(=O)=O)cs2)cn1 [CBK306236] | 62.9389 |
| O=C(NCCc1c[nH]c2ccccc12)c1cc2c(ccc3ccccc32)oc1=O [CBK264550] | 103.352 |
| Cc1cc(NS(=O)(=O)c2cccc3nsnc23)n(C)n1 [CBK067246] | 102.661 |
| O=C(c1ccc2occc2c1)N1CCCC2(CCN(Cc3ccccc3)C2)C1 (centres unmarked) [CBK136882] | 97.332 |
| CCNC(=S)NNC(=O)CCn1c2ccccc2c2ccccc21 [CBK262564] | 92.5484 |
| COc1ccc(Cl)cc1N1CCN(CCCCC2NC(=O)NC2=O)CC1 (centres unmarked) [CBK126448] | 106.332 |
| Cc1n[nH]cc1CN(CCCn1ccnc1)Cc1cccc(F)c1 [CBK282650] | 108.164 |

| SMILES | % of control remaining |
| --- | --- |
| CC(C)Cc1cc(CNC(=O)Nc2cc(-c3cccnc3)nn2C)no1 [CBK307048] | 66.7725 |
| OCCN1CCN(Cc2nc(O)c3ccccc3n2)CC1 [CBK266089] | 131.275 |
| CC(=O)Nc1sc(/C(C#N)=C/c2cccc(Oc3ccccc3)c2)nc1-c1ccc(C)cc1 [CBK264895] | 90.3379 |
| Cc1cc(C(=O)N2CCC3(C/C=C/CCOc4ccccc4C(=O)NCCCNC3=O)CC2)no1 [CBK292155] | 99.0811 |
| COCC(=O)N1CCCC(c2nc(C)n3c(C)csc23)C1 (centres unmarked) [CBK285214] | 94.7041 |
| CCn1cc(NC(=O)CCn2c(C(F)F)cc3cccnc32)cn1 [CBK282769] | 97.9585 |
| CCN(CC)CC/N=C1/CCCc2ccccc2N1 [CBK263520] | 86.9674 |
| O=C(Nc1ccc2c(c1)CS(=O)(=O)C2)c1cccs1 [CBK057563] | 99.6411 |
| COc1ccc(CCNC(=O)C2CCCN(S(=O)(=O)c3ccc4ccccc4c3)C2)cc1 (centres unmarked) [CBK269601] | 90.3006 |
| CCC(CO)Nc1cncc(-c2ccccc2CO)n1 (centres unmarked) [CBK065775] | 101.457 |
| CCOc1ccc(NCc2ccccc2NS(=O)(=O)c2ccc(C)cc2)cc1 [CBK056876] | 81.0288 |
| COc1ccccc1CNc1ccc(S(N)(=O)=O)cc1 [CBK288476] | 53.4609 |
| Cc1ccnc(NCC2CCN(CC(=O)Nc3cc(C)no3)C2)c1 (centres unmarked) [CBK306121] | 104.333 |
| CCC1CCCCN1C(=O)c1ccc(C)c(OC)c1 (centres unmarked) [CBK081557] | 93.5586 |
| O=C(C1CCCC1)N1C[C@@H]2CCCCN(Cc3cccnc3)[C@@H]2C1 [CBK285492] | 106.607 |
| CC(=O)N[C@H](Cc1c[nH]c2ccccc12)C(=O)N1CCN(c2ccc(C(F)(F)F)cc2)CC1 [CBK091314] | 91.3719 |
| CC(C)Nc1cc(SCc2ccc(F)cc2)ncn1 [CBK107158] | 93.5747 |
| O=C(COc1ccc(S(=O)(=O)N2CCc3ccccc32)cc1Cl)NCc1ccco1 [CBK268293] | 101.167 |
| COc1cc2c(cc1NC(=O)CSc1nc3ccccc3[nH]1)oc1ccccc12 [CBK265153] | 134.217 |
| O=C(NCCN1CCc2ccccc2C1)C1CCCCC1 [CBK305049] | 65.3109 |
| Cn1cc(-c2ncc(OCCn3cccc3)nc2N)cn1 [CBK145170] | 105.124 |
| Nc1ncc(-c2cccc3cccnc23)nc1N1CCOCC1 [CBK063383] | 87.9002 |
| c1ccc(-c2cn3ccnc3c(NCC3CCOCC3)n2)cc1 [CBK037356] | 132.575 |
| O=c1[nH]cc(-c2ccccc2)cc1CNCC1Cc2ccccc2O1 (centres unmarked) [CBK284772] | 92.2169 |
| O=C(O)CSc1nc2ccc([N+](=O)[O-])cc2s1 [CBK262232] | 89.0038 |
| COc1ccc(OC)c(NC(=O)c2c(NCc3ccncc3)sc3c2CCC3)c1 [CBK266007] | 116.482 |
| O=C(Cn1ccc2ccnc(-c3cccs3)c21)N1CCOCC1 [CBK284729] | 115.013 |

| SMILES | % of control remaining |
| --- | --- |
| CCC(Sc1nc(C)cc(C)n1)C(=O)N1c2ccccc2Sc2ccccc21 (centres unmarked) [CBK263018] | 78.1956 |
| Cc1ccc([N+](=O)[O-])cc1NC(=O)c1cc(S(=O)(=O)N(C)C)c(Cl)cc1Cl [CBK266764] | 87.4478 |
| Nc1ncnc(NCCC(c2ccccc2)c2ccccc2)c1[N+](=O)[O-] [CBK267294] | 89.9396 |
| Cn1cc(Cl)c(C2CCCCCN2S(=O)(=O)c2ccc3[nH]c(=O)[nH]c(=O)c3c2)n1 (centres unmarked) [CBK286408] | 91.4619 |
| Cc1nc(CCCn2cnc3nccnc3c2=O)sc1C [CBK306962] | 74.922 |
| Cc1cc(C)n(C2CCN(Cc3c(C)nc4ccccn34)CC2)n1 [CBK281614] | 95.6008 |
| Nc1ccc2nc(CCCCCC(=O)O)sc2c1 [CBK016399] | 60.6809 |
| CCCN1CC(NC(=O)c2cc(COc3cccc(F)c3)[nH]n2)CC1=O (centres unmarked) [CBK306912] | 79.4131 |
| c1csc(-c2ccn3c(n2)nc2ccccc23)c1 [CBK287976] | 60.0458 |
| COc1ccc(S(=O)(=O)NCCCN2CCOCC2)c(C)c1C [CBK266519] | 116.583 |
| O=S(=O)(c1ccc(C(F)(F)F)cc1)N1CCC2(CC1)OCCO2 [CBK044520] | 92.3353 |
| Cc1cc(Cl)ccc1OCCCC(=O)Nc1sc2c(c1C(N)=O)CCCCCC2 [CBK265390] | 94.0347 |
| O=[N+]([O-])c1cccc(-c2csc(N/N=C\c3cccc(O)c3)n2)c1 [CBK263418] | 97.7507 |
| CCOC(=O)c1sc(NS(=O)(=O)c2ccc(-c3ccccc3)cc2)nc1C [CBK003784] | 75.6424 |
| Cc1ccc(Nc2nc(N/N=C/c3cccc4ccccc34)nc(N3CCC(Cc4ccccc4)CC3)n2)cc1 [CBK262101] | 90.8733 |
| Cn1cncc1CN1CCCC(c2cc3cccnc3[nH]2)C1 (centres unmarked) [CBK284948] | 108.307 |
| CSCCc1[nH]c(SCC(=O)Nc2cccc3ccccc23)nc1C [CBK266097] | 122.707 |
| O=C(c1cccnc1)N1CCN(Cc2ccc([N+](=O)[O-])cc2)CC1 [CBK263026] | 93.9517 |
| COc1cc(F)cc(OC2CCNCC2)c1NC(=O)/C=C/c1cccnc1 [CBK050344T] | 82.5355 |
| O=C(Nc1ccc(-c2ccccc2)cc1)c1cccc(S(=O)(=O)NCC2CCCO2)c1 (centres unmarked) [CBK296994] | 84.8369 |
| NS(=O)(=O)c1ccc(C(=O)N2CCC3(CCN(C(=O)Cc4c[nH]c5ccccc45)C3)C2)cc1 (centres unmarked) [CBK131425] | 94.1085 |
| CN(C)c1nc(N(C)C)n(C(=O)c2cccs2)n1 [CBK019805] | 61.8161 |
| Nc1nc2n(n1)C1(CCCCC1)C1=C(CCCC1)N2 [CBK288219] | 127.485 |
| c1ccc2sc([C@H]3CCNC3)nc2c1 [CBK289389] | 108.799 |
| Cc1cc(C(=O)N2CCC(Cn3cncn3)(C3CCCCC3)CC2)n[nH]1 [CBK136786] | 108.867 |
| COc1ccc(N2CCN(c3cc(-c4ccc(CCC(=O)O)cc4)ncn3)CC2)cc1OC [CBK091030] | 93.2912 |
